Reference: PubChem BioAssay AID1461 (National Center for Advancing Translational Sciences (NCATS), 2008)
In all, about 220,000 compounds went through this assay and about 2,300 (1%) were called active. This list was built around the results that the source calls inconclusive (neither active nor inactive); the mix of calls is not that of the screen. The call rests on the fitted dose curve; in most records, active means well fitted inhibition curve with a large enough effect; inconclusive means small, poorly fitted or top-dose-only effect, or effect the other way; inactive means no such curve, though single readings can be large or run the other way. Potencies of inconclusive entries are left out as doubtful fits.

Target: Neuropeptide S receptor (Homo sapiens) (UniProt Q6W5P4)
Chain of UniProt Q6W5P4 (Q6W5P4 whole entry, looked up): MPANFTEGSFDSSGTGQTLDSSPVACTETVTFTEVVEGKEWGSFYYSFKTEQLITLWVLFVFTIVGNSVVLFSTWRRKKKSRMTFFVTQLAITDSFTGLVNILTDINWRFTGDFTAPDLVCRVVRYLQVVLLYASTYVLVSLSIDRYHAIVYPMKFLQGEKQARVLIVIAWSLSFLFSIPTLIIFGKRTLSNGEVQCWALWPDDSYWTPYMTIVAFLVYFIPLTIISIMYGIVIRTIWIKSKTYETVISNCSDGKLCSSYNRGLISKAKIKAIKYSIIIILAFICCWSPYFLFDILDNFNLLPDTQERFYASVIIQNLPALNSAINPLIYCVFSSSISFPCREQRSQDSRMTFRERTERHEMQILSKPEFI
Assay: qHTS Assay for Antagonists of the Neuropeptide S Receptor: cAMP Signal Transduction; further: nearly all actives have a fitted effect of over 50% in size
Settings: CHO-NPSR cells, cAMP TR-FRET, antagonist mode; series mostly up to 38.3 µM
Potency means the concentration at half of the fitted maximal effect; tags describe the fitted curve by direction and shape.

Row | SMILES | Potency
1 | C=CCN=C(C)C1=C(O)CCC1=O | inactive
2 | O=S(=O)(N1CCCCC1)n1c(Cc2ccccc2)nc2ccccc21 | inconclusive [inhibitor, partial curve, poor fit]
3 | COc1cccc(NC(=S)Nc2ccc(Br)cc2Cl)c1 | inconclusive [activator, single point]
4 | CCc1cc2cc(C(=O)Nc3ccccc3F)sc2s1 | inconclusive [inhibitor, single point]
5 | Cc1ccc(S(=O)(=O)c2c(C)nn(C(C)(C)C)c2OC(=O)C(C)(C)C)cc1 | inconclusive [inhibitor, single point]
6 | COc1ccc(S(=O)(=O)N[C@@H](C)C(=O)OCC(=O)Nc2cc3oc4ccccc4c3cc2OC)cc1 | inactive
7 | CC(NCc1ccccc1OC1CCCC1)c1ccccc1 (centres undefined) | inactive
8 | CCC(C)(C)NC(=O)C(c1ccc(C)cc1)N(Cc1cccnc1)C(=O)c1csnn1 (centres undefined) | inconclusive [inhibitor, single point]
9 | CCCOC(=O)c1c(NC(=O)C2C3C=CC(C3)C2C(=O)O)sc2c1CCC(C)C2 (centres undefined) | inactive
10 | COc1cc(-c2c(C#N)c(N)nc(SCc3ccncc3)c2C#N)cc(OC)c1OC | inconclusive [inhibitor, partial curve]
11 | Cc1ccccc1NC(=O)C(=Cc1ccc(C(=O)O)cc1)C(=O)Nc1ccccc1C | active: 3.98 µM
12 | CCCCCn1c(CN2CCN(CCO)CC2)nc2c1c(=O)n(C)c(=O)n2C | inactive
13 | CC1(C)C(=O)Nc2ccccc2N1C(=O)COc1ncnc2ccccc12 | inconclusive [activator, single point]
14 | CC(C)(C)NC(=O)CSc1ncnc2c1nnn2Cc1ccccc1Cl | inconclusive [inhibitor, single point]
15 | O=C(C1=C[C@H](c2ccc(C(F)(F)F)cc2)C[C@H](OCc2ccc(CO)cc2)O1)N1CCN(Cc2ccccc2)CC1 | inconclusive [activator, partial curve]
16 | O=C(NC1CCCC1)C(c1c[nH]c2ccccc12)N(C(=O)Cn1nnc(-c2ccc(Cl)cc2)n1)c1ccccc1 (centres undefined) | inconclusive [inhibitor, single point]
17 | CN(C)c1ccc(/C=C/C=C2/SC(=S)N(c3ccccc3)C2=O)cc1 | inconclusive [inhibitor, partial curve]
18 | CCOc1cccc(CNc2ccc(O)cc2)c1OCc1ccc(Cl)cc1 | inconclusive [inhibitor, single point]
19 | CCOC(=O)C1(S(=O)(=O)c2ccc(Cl)cc2)CCN(Cc2ccc(Cl)cc2)CC1 | inconclusive [inhibitor, partial curve]
